# Assay results published in the RNAGym collection of RNA variant scans (doi:10.1093/nar/gkz1192).
# The source gives no read counts; variants with many changes may rest on few reads.
# B1: CPEB3 Ribozyme (parent)
# chain: UAACAGGGGGCCACAGCAGAAGCGUUCACGUCGCAGCCCCUGUCAGAUUCUGGUGAAUCUGCGAAUUCUGCUGUAUAUCUC
# Variants of: B1
# Test: self-cleavage, relative activity (ratio to wild type); higher = more cleavage; in vitro, sequencing
# How it was run: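 Relative activity was defined as the cleaved/total read fraction for a variant divided by the same fraction for the unmutated ribozyme. CPEB3 self-cleaving ribozyme libraries were made by rounds of error-prone PCR, barcoded, and transcribed in vitro with T7 RNA polymerase for 5 hours at 37°C, and cleavage ran through transcription plus a 15 min DNase I step before EDTA. Illumina sequencing of template-switched reverse transcripts gave the reads, and DNA sequencing mapped the barcodes. Averages come from three batches, using variants with at least 5 reads.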
row,Variant,self-cleavage
1,U1C G19A C50U,0.07
2,U1C G19A U48C,0.25
3,U1C G19C U25C C38U U41C A45G,0.04
4,U1C G19U A21G A35G A65G U69A,0.13
5,U1C G19U U54C U67C A75U,0.09
6,U1C G22A U26A U31C A56G U69C,0.07
7,U1C G24A A64U U66G,0.22
8,U1C G24C U72G,0.27
9,U1C G30A A35G,0.27
10,U1C G30A U76A,0.17
11,U1C G30C A56G U60C A65G U69C A75G,0.04
12,U1C G30U U31A A64U,0.22
13,U1C G36A A47G A56U A57U,0.16
14,U1C G42C G52C A56G,0.38
15,U1C G46U U74C,0.18
16,U1C G46U U78A,0.11
17,U1C G52A A56U,1.02
18,U1C G53U U67C,0.24
19,U1C G63A U74C C81A,1.13
20,U1C U25A G36C U78C,0.3
21,U1C U25A G36U U60C U72A U76A,0.06
22,U1C U25A U26C U60C A77G,0.45
23,U1C U25C A28U A45G U66C,0.36
24,U1C U25C A28U U41C U48C U66A U78A,0.05

row,Variant,self-cleavage
1,U1C U25C A35G U78C,0.4
2,U1C U25C A35G U78G,0.25
3,U1C U25C A45G,0.31
4,U1C U25C C32U G33A,0.21
5,U1C U25C U26C,0.42
6,U1C U25C U26C U41A U74C,0.06
7,U1C U25C U41C U43C A57G U78C,0
8,U1C U25C U49C,0.06
9,U1C U25C U69C U80C,0.28
10,U1C U25C U80A,0.43
11,U1C U25G A56G,0.41
12,U1C U25G G55A A56C,0.12
13,U1C U25G U69C,0.23
14,U1C U26A A28G,0.37
15,U1C U26A A35G A57G U69A U76C,0.97
16,U1C U26A A35G G52A U76C,1.28
17,U1C U26A A56U A77G,0.48
18,U1C U26A U51A U80C,0.65
19,U1C U26C A28G A35U U43C U54G,0.36
20,U1C U26C A35U C50U,0.18
21,U1C U26C A45C,0.17
22,U1C U26C A65G U74A,0.14
23,U1C U26C U43C,0.4
24,U1C U26C U49C U60A,0.2

row,Variant,self-cleavage
1,U1C U26C U60C U67A A75U A77U,0.37
2,U1C U26C U74G,0.65
3,U1C U26G C34U G53A A56G A64U C81U,0.04
4,U1C U31A G46U U48C U80A,0.2
5,U1C U31A U41G U69A U80C,0.07
6,U1C U31A U43C A56G U60C U69A,0.06
7,U1C U31C A45U,0.27
8,U1C U31C A47G,0.76
9,U1C U31C C40A A65G,0.2
10,U1C U31C U48C U80C,0.2
11,U1C U31G U72C,0.8
12,U1C U41A A45G G55A A56G U67C,0.06
13,U1C U41A A64G U67A A75G,0.37
14,U1C U41A U49C C50U A56G,0.16
15,U1C U41A U67C,0.12
16,U1C U41C A47G,0.87
17,U1C U41C A56G U69A U80A,0.49
18,U1C U41C C71A A77G U80C,0.2
19,U1C U41C U48C,0.61
20,U1C U41C U49A A56U,1.12
21,U1C U41C U51C U54C U80C,1
22,U1C U41G G70C,0.06
23,U1C U43A A56G,0.3
24,U1C U43A A64U,0.32

row,Variant,self-cleavage
1,U1C U43A A65G,0.55
2,U1C U43A U51C,1.15
3,U1C U43C A47G A77G,0.33
4,U1C U48C C71U,0.2
5,U1C U48C U49C,0.12
6,U1C U49A G53C G73U A75U,1.2
7,U1C U49A U58C C62A,0.13
8,U1C U49C A75G A77G,0.07
9,U1C U49C U66A,0.27
10,U1C U49C U80C,0.5
11,U1C U51A A56U A75G,0.23
12,U1C U51A A65G U67G,0.42
13,U1C U51C A56U A64G,0.31
14,U1C U54A A56U,0.66
15,U1C U54A G70A,0.38
16,U1C U54C U66C A77G,0.23
17,U1C U54C U72A A77G,0.84
18,U1C U54G U58A A64G,0.17
19,U1C U58C U69C U72G,0.42
20,U1C U72A U74C,1.3
21,U1G A2G A18U C23U U48C U78C,0.05
22,U1G A2G G36A C38U U41C U49C U54C,0.36
23,U1G A2G U54G U58C U78C,0.19
24,U1G A3G A18G A56G U60A,0.43

row,Variant,self-cleavage
1,U1G A5G A35G A57U U58C A64U U74C,0.22
2,U1G A5G A64G,0.45
3,U1G A5G C12G C39A A45U U60C U78A,0.05
4,U1G A13G A15G U26C U69C G70A,0.04
5,U1G A13U U25C U54C G61A,0.05
6,U1G A13U U26C U66C U76A,0.13
7,U1G A15G U26A U69A,0.23
8,U1G A15U A45G,0.43
9,U1G A15U U25C C34U C40A U48A A75G,0.05
10,U1G A15U U43C C44A,0.37
11,U1G A18C G19U,0.08
12,U1G A18G A35G U54C C68U,0.47
13,U1G A18U A45G C50U,0.4
14,U1G A18U G19U C40A,0.03
15,U1G A18U G36U U51C,0.05
16,U1G A18U G42A U69A,0.31
17,U1G A20G U48C U66C,0.22
18,U1G A35G A56G U58C A64U U74C,0.51
19,U1G A35U U72A,0.15
20,U1G A65G U80G,0.56
21,U1G C4A U41C A47G U54A U60A G63A,0.48
22,U1G C4U A5U G33A U67C,0.29
23,U1G C11U U25C A64G U78C,0.04
24,U1G C14U A35G U58C A64U G70C U74C,0.5

row,Variant,self-cleavage
1,U1G G7A A13U G24A U26C U66C,0.1
2,U1G G9A G33A A56G U72A U78C,0.04
3,U1G G9C U31C A35U A56G,0.06
4,U1G G10A A47G U51A,0.31
5,U1G G10C A20G A57G U80C,0.48
6,U1G G30A A56G A57G,0.19
7,U1G U25C U26C G30A U31A U60C,0.48
8,U1G U26C A28U U31C U43C A57G C68U,0.29
9,A2C A3G A15U,0.58
10,A2C A3G C23U U31C U54A,0.09
11,A2C A3G G19U A20G U25A U43G U48C,0.05
12,A2C A5C G8U G22A U41C G73A,0.04
13,A2C A5G A13G U25C A28U U41A C62U,0.06
14,A2C A5G G9A A21G U26C A28C,0.05
15,A2C A5G U25C A28U C62U,0.43
16,A2C A5U A35G A65U U72C U74C,0.63
17,A2C A15G A35U U60A,0.37
18,A2C A15G C27U U72A,0.27
19,A2C A15U A20G C38U,0.05
20,A2C A21G A57G,0.37
21,A2C A21G U41A U51A U67A U69C U72A,0.12
22,A2C A21U A35G U67A,0.43
23,A2C A28G A56G,0.56
24,A2C A28G G61A,0.51

row,Variant,self-cleavage
1,A2C A28U G33U,0.1
2,A2C A28U U72C,0.32
3,A2C A35G U58C,0.74
4,A2C A56G A65G U72A,0.18
5,A2C A77G C81A,1.19
6,A2C C11A U41A U78A,0.26
7,A2C C11G U25C U41A U78A,0.52
8,A2C C11G U41A U76A U78A,0.05
9,A2C C23A U26C A64U,0.08
10,A2C G9U A13G U49A U51C,0.05
11,A2C G24A U69C,0.1
12,A2C U25C A28U U43C C62U,0.21
13,A2C U25C A45C A57G,0.63
14,A2C U26C U48C U67A,0.42
15,A2C U31A U51C A64G U67C,0.11
16,A2C U31A U67A,0.53
17,A2C U41A A47U U58A,0.06
18,A2C U41C C68A,0.35
19,A2C U49G A56U G61A U78A,0.27
20,A2C U51C A57G,0.2
21,A2G A3G A5U U54C U78A,1.16
22,A2G A3G A13G,0.45
23,A2G A3G A13U A15U A35U G46A,0.49
